Results published in PubChem BioAssay AID463173 (ICCB-Longwood Screening Facility, Harvard Medical School, 2010).
Screen size: about 52,000 compounds; about 4,300 (8.3%) were called active. Cut-off read from the data, not from the text of the source: active = survival mostly below about 52% (no sharp cut-off); inactive = mostly above about 56%. This is one part of the list.

What follows are molecules tested on DeltatarO mutant (assay: growth inhibition of S. aureus wild type versus tarO mutant, primary screen, teichoic acid synthesis inhibitors, RN4220, OD600 (AID 463173)). Details: OD600, 18 h, stronger effect = lower value, screened at 18.75 µg/mL (by protocol).

| SMILES | survival |
| --- | --- |
| CCn1nc(C)c2c(-c3ccccc3)cc(=O)n(C(C)C(=O)NCCc3ccccc3)c21 (configuration not stated) | inactive: 77% |
| CCc1nn2c(=O)cc(COC(=O)c3ccccc3NC(=O)c3cccs3)nc2s1 | inactive: 84% |
| O=C(CCn1ccc2cc(S(=O)(=O)N3CCCC3)ccc21)NCc1ccccc1Cl | inactive: 55% |
| O=C(Nc1sc2c(c1C(=O)NCCc1ccccc1)CCC2)c1ccco1 | inactive: 108% |
| CCc1ccc(NC(=O)c2cc(C)nn2-c2ccccc2)cc1 | inactive: 65% |
| CCOC(=O)c1c(C)n(-c2ccccc2)c2ccc(OC(=O)c3cc(OC)cc(OC)c3)cc12 | inactive: 75% |
| CCOC(=O)c1c(NC(=O)c2cc3ccccc3c(=O)o2)sc2c1CCC(C(C)(C)C)C2 (configuration not stated) | inactive: 53% |
| CC(=O)Nc1ccc(-c2nn3c(C)nnc3s2)cc1 | inactive: 76% |
| O=C(Oc1ccc(OC(=O)N2CCOCC2)cc1)N1CCOCC1 | inactive: 87% |
| CCOC(=O)N1CCc2c(sc3c2c(=O)n(-c2ccc(F)cc2)c(=O)n3CC(=O)c2ccccc2)C1 | inactive: 77% |
| O=C(NCCc1ccccc1)C1COc2ccccc2C1 (configuration not stated) | active: 37% |
| O=C(c1ccc2c(c1)N(Cc1ccc(Cl)cc1)C(=O)c1ccccc1S2(=O)=O)N1CCc2ccccc21 | inactive: 120% |
| CCC(C(=O)Nc1cccc(C#N)c1)n1nc(-c2ccccc2)ccc1=O (configuration not stated) | active: 40% |
| COC(=O)c1ccccc1NC(=O)CSc1nnc2cc(C)c3cc(C)cc(C)c3n12 | inactive: 60% |
| Cc1ccc(NC(=O)CCCn2nc(C)c3sc4ccccc4c3c2=O)c(Cl)c1 | inactive: 84% |
| Cc1ccc(-c2nnc(Nc3cccc(Br)c3)c3ccccc23)cc1S(=O)(=O)NCC1CCCO1 (configuration not stated) | inactive: 70% |
| O=C(NCc1ccc(F)cc1)C(=O)NCC(c1ccco1)S(=O)(=O)c1cccs1 (configuration not stated) | active: 8% |
| O=C(Cn1ccc2cc(S(=O)(=O)N3CCCC3)ccc21)NCc1ccccc1Cl | inactive: 65% |
| CCOc1ccc(C2C(=O)N(C3CCCCCC3)CC(=O)N2CCc2ccc(Cl)cc2)cc1OC (configuration not stated) | inactive: 75% |

| SMILES | survival |
| --- | --- |
| CCCc1ccc(-c2ccc(/C=C/C(=O)O)cc2)nc1 | inactive: 82% |
| COc1ccc(Cl)cc1S(=O)(=O)N1CCCC1 | inactive: 103% |
| CCOc1ccc(NC(=O)CCNS(=O)(=O)c2cccc3nsnc23)cc1 | inactive: 52% |
| Cc1ccc(Nc2nc(C)c(NC(=O)c3ccc(C)cc3)c(Nc3ccc(C)cc3)n2)cc1 | inactive: 116% |
| CCOc1ccc(C(=O)Nc2ccc3oc(-c4ccncc4)nc3c2)cc1 | inactive: 74% |
| CCS(=O)(=O)N1CCc2cc(C(=O)Nc3cc(OC)c(Cl)cc3OC)ccc21 | active: 43% |
| CCc1cccc(C)c1NC(=O)C(CC)Sc1nncn2c1cc1occc12 (configuration not stated) | active: 53% |
| CCC(=O)Nc1cc(-c2nc3ccccc3s2)c(Cl)cc1Cl | inactive: 132% |
| COc1ccc(NC(=O)c2oc3ccccc3c2NC(=O)COc2ccc(F)cc2)c(OC)c1 | inactive: 83% |
| Cn1c(=O)n(C)c2cc(NS(=O)(=O)c3ccc(C(C)(C)C)cc3)c(NCc3ccccc3)cc21 | active: 43% |
| Cc1cccc(C(=O)Nc2nnc(S(=O)(=O)N3CCCc4ccccc43)s2)c1 | active: 17% |
| COc1ccc(CCNC(=O)Cn2nc(C)c3c(C)n(-c4ccc(C)cc4)nc3c2=O)c(OC)c1 | inactive: 87% |
| Cc1c(Cl)cccc1NC(=O)Cn1cnc(S(=O)(=O)N2CCCC2)c1 | inactive: 90% |
| COc1ccc(NC(=O)CC2C(=O)N(c3ccc(C)cc3)C(=O)N2Cc2ccc(C)cc2)cc1 (configuration not stated) | inactive: 68% |
| O=c1c2ccccc2c2nc3c(=O)c4ccccc4c3nc12 | inactive: 61% |
| CCOc1ccc(NC(=O)CCn2nc(C)c(S(=O)(=O)N3CCCCC3)c2C)cc1 | inactive: 126% |
| Cc1nnc(NCc2ccc(F)cc2)c2c1nnn2Cc1ccccc1Cl | inactive: 82% |
| COc1ccccc1N1CCN(S(=O)(=O)c2c(C)sc3ncn(CC(=O)NCCN(C)C)c(=O)c23)CC1 | inactive: 88% |
| O=C(NCCC1=CCCCC1)c1ccc2c(c1)N(Cc1ccc(Cl)cc1)C(=O)c1ccccc1S2(=O)=O | inactive: 78% |

| SMILES | survival |
| --- | --- |
| CCc1ccc(N2C(=O)N(CC(=O)C(C)(C)C)c3ccccc3S2(=O)=O)cc1 | inactive: 72% |
| CCc1ccc(NC(=O)CSc2nnc(C(C)C)n2CC)cc1 | inactive: 96% |
| COC(=O)c1cccc(CN2C(=O)SC(Nc3ccc(Cl)cc3)C2=O)c1 (configuration not stated) | inactive: 42% |
| COc1ccc(Nc2c3c(nc4nncn24)CCC3)cc1Cl | inactive: 84% |
| O=C(Nc1ccccc1C(F)(F)F)N1CCC2(CC1)Oc1ccccc1C(=O)N2Cc1ccccc1F | inactive: 67% |
| CCOC(=O)c1c(C)oc2nc(C)nc(NCc3ccc(OC)cc3)c12 | inactive: 94% |
| CCCc1cc(=O)[nH]c(Nc2ccc(C)c(O)c2)n1 | inactive: 57% |
| CCCCOc1ccc(C(=O)Nc2nc3c(s2)CC(C)CC3)cc1 (configuration not stated) | inactive: 74% |
| CC(=O)Nc1ccc(NC(=O)CCc2c(C)nc3c(c(C)nn3-c3ccccc3)c2C)cc1 | inactive: 107% |
| CCN(CC)CCCNC(=O)c1nn(-c2ccc(OC)cc2)c(=O)c2c1c1ccccc1n2C | inactive: 100% |
| O=c1c2ccccc2nc(N2CCN(c3cccc(Cl)c3)CC2)n1-c1ccccc1 | inactive: 63% |
| CCC(C(=O)N1CCN(c2ccc(OC)cc2)CC1)n1nc(C)n2c(cc3occc32)c1=O (configuration not stated) | inactive: 117% |
| CCC(=O)Nc1ccccc1N1CCN(c2ccc(F)cc2)CC1 | inactive: 89% |
| Nc1ccc(S(=O)(=O)NC2(C(F)(F)F)NC(=O)N(c3cccc(Cl)c3)C2=O)cc1 (configuration not stated) | inactive: 148% |
| Cc1[nH]c2ccccc2c1C(=O)C(=O)NC1CC(=O)N(c2ccccc2)C1 (configuration not stated) | inactive: 94% |
| Cc1cccc(-n2c(SCC(=O)Nc3ccccc3C)nc3c(oc4ccccc43)c2=O)c1 | inactive: 87% |
| COC(=O)c1ccc(NC(=O)CN(c2cccc(C(F)(F)F)c2)S(C)(=O)=O)cc1 | inactive: 73% |
| CCc1ccccc1N1C(=O)N(C)c2ccccc2S1(=O)=O | inactive: 84% |
| CCc1cc2c(NCC3CCCO3)ncnc2s1 (configuration not stated) | inactive: 84% |
